In all, about 2,900 compounds were measured (“NF-kB SEAP reporter activity, fold change vs agonist alone”: median about 0.99, highest 2% from about 2.6 on). The list shows a part of the results.
How the values were obtained:
RAW-Dual [1] = test: NF-kB SEAP reporter activity, fold change vs agonist alone; cytotoxicity flag (confluency mask): cytotoxic (confluency <70% of control); higher = enhanced NF-kB activity
Outline: (§1)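 Supernatant from RAW-Dual macrophages was read after 20 hours for IRF by QuantiLuc luminescence and for NF-κB by QuantiBlue absorbance at 620 nm. The cells (50,000 cells/well in DMEM, 384-well plates, 37 °C, 5% CO2) had received 50 nL of library stock by pin tool and, 1 h later, a PRR agonist. Reporter activity is expressed relative to agonist-alone wells as fold change, and wells were flagged cytotoxic if IncuCyte confluency was under 70% of agonist controls in both mask sets.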

RAW-Dual [2] = test: NF-kB SEAP reporter activity, fold change vs agonist alone; higher = enhanced NF-kB activity
Outline: as §1

RAW-Dual [3] = test: NF-kB SEAP reporter activity, fold change vs agonist alone; cytotoxicity flag (confluency mask): not cytotoxic; higher = enhanced NF-kB activity
Outline: as §1

[4] = agonist: ODN 1826 (TLR9) 0.5 ug/mL
[5] = agonist: Pam2CSK4 (TLR2/6) 0.1 ug/mL
[6] = agonist: Pam3CSK4 (TLR2/1) 0.1 ug/mL
[7] = library stock concentration (final ~1000-fold dilution): 10 mM, cytotoxicity flag (confluency mask): not cytotoxic, agonist: Imiquimod (TLR7) […]
[8] = library stock concentration (final ~1000-fold dilution): 10 mM, cytotoxicity flag (confluency mask): not cytotoxic, agonist: MPLA (TLR4) […]

SMILES: CCCCC(O)(Cn1cncn1)c1ccc(Cl)cc1Cl (configuration not stated) (library stock concentration (final ~1000-fold dilution): 10 mM)
- NF-kB SEAP reporter activity (RAW-Dual [1]; agonist: LPS (TLR4) 0.1 ug/mL): 0.866
- NF-kB SEAP reporter activity (RAW-Dual [1]; [4]): 0.962
- NF-kB SEAP reporter activity (RAW-Dual [1]; [5]): 0.826
- NF-kB SEAP reporter activity (RAW-Dual [1]; [6]): 0.963

SMILES: CCCCC(O)(Cn1cncn1)c1ccc(Cl)cc1Cl (configuration not stated)
- NF-kB SEAP reporter activity (RAW-Dual [2]; library stock concentration (final ~1000-fold dilution): 10 mM, cytotoxicity flag (confluency mask): cytotoxic (confluency <70% of control), agonist: Imiquimod (TLR7) […]): 1.19
- NF-kB SEAP reporter activity (RAW-Dual [2]; library stock concentration (final ~1000-fold dilution): 10 mM, cytotoxicity flag (confluency mask): cytotoxic (confluency <70% of control), agonist: MPLA (TLR4) […]): 1.1

SMILES: COC1=C[C@@H]2[C@@H]3Cc4ccc(OC)c(O)c4[C@]2(CCN3C)CC1=O
- NF-kB SEAP reporter activity (RAW-Dual [2]; [7]): 0.953
- NF-kB SEAP reporter activity (RAW-Dual [2]; [8]): 0.965

SMILES: COC1=C[C@@H]2[C@@H]3Cc4ccc(OC)c(O)c4[C@]2(CCN3C)CC1=O (library stock concentration (final ~1000-fold dilution): 10 mM)
- NF-kB SEAP reporter activity (RAW-Dual [3]; agonist: LPS (TLR4) 0.1 ug/mL): 1.21
- NF-kB SEAP reporter activity (RAW-Dual [3]; [4]): 1.01
- NF-kB SEAP reporter activity (RAW-Dual [3]; [5]): 1.13
- NF-kB SEAP reporter activity (RAW-Dual [3]; [6]): 1.17

SMILES: COc1ccc(N(C(=O)Oc2c(C)cccc2C)c2ccnc(Nc3ccc(N4CCN(C)CC4)cc3)n2)c(OC)c1 (library stock concentration (final ~1000-fold dilution): 10 mM)
- NF-kB SEAP reporter activity (RAW-Dual [3]; agonist: LPS (TLR4) 0.1 ug/mL): 1.48
- NF-kB SEAP reporter activity (RAW-Dual [3]; [4]): 1.79
- NF-kB SEAP reporter activity (RAW-Dual [3]; [5]): 1.13
- NF-kB SEAP reporter activity (RAW-Dual [3]; [6]): 1.85

SMILES: COc1ccc(N(C(=O)Oc2c(C)cccc2C)c2ccnc(Nc3ccc(N4CCN(C)CC4)cc3)n2)c(OC)c1
- NF-kB SEAP reporter activity (RAW-Dual [2]; [7]): 1.45
- NF-kB SEAP reporter activity (RAW-Dual [2]; [8]): 1.45

SMILES: CC12NC(Cc3ccccc31)c1ccccc12.O=C(O)/C=C\C(=O)O (configuration not stated) (library stock concentration (final ~1000-fold dilution): 10 mM)
- NF-kB SEAP reporter activity (RAW-Dual [3]; agonist: LPS (TLR4) 0.1 ug/mL): 1.25
- NF-kB SEAP reporter activity (RAW-Dual [3]; [4]): 0.851
- NF-kB SEAP reporter activity (RAW-Dual [3]; [5]): 1.13
- NF-kB SEAP reporter activity (RAW-Dual [3]; [6]): 1.15

SMILES: CC12NC(Cc3ccccc31)c1ccccc12.O=C(O)/C=C\C(=O)O (configuration not stated)
- NF-kB SEAP reporter activity (RAW-Dual [2]; [7]): 1.16
- NF-kB SEAP reporter activity (RAW-Dual [2]; [8]): 1.1

SMILES: ClC(Cl)=C(c1ccc(Cl)cc1)c1ccc(Cl)cc1
- NF-kB SEAP reporter activity (RAW-Dual [2]; [8]): 1.76

SMILES: ClC(Cl)=C(c1ccc(Cl)cc1)c1ccc(Cl)cc1 (library stock concentration (final ~1000-fold dilution): 10 mM)
- NF-kB SEAP reporter activity (RAW-Dual [3]; agonist: LPS (TLR4) 0.1 ug/mL): 1.44
- NF-kB SEAP reporter activity (RAW-Dual [3]; [4]): 0.68
- NF-kB SEAP reporter activity (RAW-Dual [3]; [5]): 0.79
- NF-kB SEAP reporter activity (RAW-Dual [3]; [6]): 1.14

SMILES: CC1(C)C(=O)N(c2ccc(C#N)c(C(F)(F)F)c2)C(=O)N1CCCCO
- NF-kB SEAP reporter activity (RAW-Dual [2]; [8]): 1.08

SMILES: CC1(C)C(=O)N(c2ccc(C#N)c(C(F)(F)F)c2)C(=O)N1CCCCO (library stock concentration (final ~1000-fold dilution): 10 mM)
- NF-kB SEAP reporter activity (RAW-Dual [3]; agonist: LPS (TLR4) 0.1 ug/mL): 0.98
- NF-kB SEAP reporter activity (RAW-Dual [3]; [4]): 0.986
- NF-kB SEAP reporter activity (RAW-Dual [3]; [5]): 0.99
- NF-kB SEAP reporter activity (RAW-Dual [3]; [6]): 1.1

SMILES: Cl.O=C1CCC2(O)C3Cc4ccc(O)c5c4C2(CCN3CC2CC2)C1O5 (configuration not stated)
- NF-kB SEAP reporter activity (RAW-Dual [2]; [7]): 0.985
- NF-kB SEAP reporter activity (RAW-Dual [2]; [8]): 0.987

SMILES: Cl.O=C1CCC2(O)C3Cc4ccc(O)c5c4C2(CCN3CC2CC2)C1O5 (configuration not stated) (library stock concentration (final ~1000-fold dilution): 10 mM)
- NF-kB SEAP reporter activity (RAW-Dual [3]; agonist: LPS (TLR4) 0.1 ug/mL): 0.955
- NF-kB SEAP reporter activity (RAW-Dual [3]; [4]): 0.919
- NF-kB SEAP reporter activity (RAW-Dual [3]; [5]): 0.739
- NF-kB SEAP reporter activity (RAW-Dual [3]; [6]): 0.982

SMILES: CNC1C(O)C(OC2C(N)CC(N)C(OC3OC(C(C)O)C(O)C(O)C3N)C2O)OCC1(C)O.O=S(=O)(O)O.O=S(=O)(O)O (configuration not stated) (library stock concentration (final ~1000-fold dilution): 10 mM water)
- NF-kB SEAP reporter activity (RAW-Dual [3]; agonist: LPS (TLR4) 0.1 ug/mL): 1.15
- NF-kB SEAP reporter activity (RAW-Dual [3]; [4]): 1.26
- NF-kB SEAP reporter activity (RAW-Dual [3]; [5]): 1.15
- NF-kB SEAP reporter activity (RAW-Dual [3]; [6]): 1.12

SMILES: CNC1C(O)C(OC2C(N)CC(N)C(OC3OC(C(C)O)C(O)C(O)C3N)C2O)OCC1(C)O.O=S(=O)(O)O.O=S(=O)(O)O (configuration not stated)
- NF-kB SEAP reporter activity (RAW-Dual [2]; library stock concentration (final ~1000-fold dilution): 10 mM water, cytotoxicity flag (confluency mask): not cytotoxic, agonist: Imiquimod (TLR7) […]): 0.947
- NF-kB SEAP reporter activity (RAW-Dual [2]; library stock concentration (final ~1000-fold dilution): 10 mM water, cytotoxicity flag (confluency mask): not cytotoxic, agonist: MPLA (TLR4) […]): 1.07

SMILES: O=C(OC1C[N+]2(CCCOc3ccccc3)CCC1CC2)C(O)(c1cccs1)c1cccs1 (configuration not stated) (library stock concentration (final ~1000-fold dilution): 10 mM)
- NF-kB SEAP reporter activity (RAW-Dual [3]; agonist: LPS (TLR4) 0.1 ug/mL): 0.989
- NF-kB SEAP reporter activity (RAW-Dual [3]; [4]): 1.04
- NF-kB SEAP reporter activity (RAW-Dual [3]; [5]): 1.1
- NF-kB SEAP reporter activity (RAW-Dual [3]; [6]): 1.04

SMILES: O=C(OC1C[N+]2(CCCOc3ccccc3)CCC1CC2)C(O)(c1cccs1)c1cccs1 (configuration not stated)
- NF-kB SEAP reporter activity (RAW-Dual [2]; [7]): 0.905
- NF-kB SEAP reporter activity (RAW-Dual [2]; [8]): 1.06

Source: the supplement of paper PMC10037445
